The whole screen tested about 390,000 compounds, of which about 150 (0.038%) were called active. Inconclusive results, whose numbers are uncertain, are shown with a selection of clear calls. The call rests on the fitted dose curve; in most records, active means well fitted inhibition curve with a large enough effect; inconclusive means small, poorly fitted or top-dose-only effect; inactive means no such curve, though single readings can be large or run the other way. Where the call is inconclusive, the potency comes from a doubtful curve fit.
The molecules below were run against Regulator of G-protein signaling 4 (Homo sapiens) (UniProt P49798) (assay: Inhibitors of Regulator of G Protein Signaling (RGS) 4: qHTS). Settings: Transcreener GDP fluorescence polarization, RGS4-accelerated GTP hydrolysis; series mostly up to 114 µM; activity change, negative = inhibition: at the top concentration.
UniProt P49798, sequence (P49798 whole entry, looked up): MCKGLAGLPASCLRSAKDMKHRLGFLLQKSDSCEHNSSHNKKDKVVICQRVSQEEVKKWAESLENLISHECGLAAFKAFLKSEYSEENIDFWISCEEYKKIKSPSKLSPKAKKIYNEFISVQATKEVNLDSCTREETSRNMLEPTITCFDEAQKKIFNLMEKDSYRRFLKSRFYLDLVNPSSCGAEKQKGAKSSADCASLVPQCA
Outline: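 MLSMR compounds (23 nl, pin-transferred) preincubated 10 min at room temperature with a 500nM (2x) first reagent, then RGS4 at 900nM (2x) plus Transcreener GDP mix added; fluorescence polarization (620/688 nm) read before and after 90 min at 30 °C.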
Further: nearly all actives have a fitted effect of over 75% in size.
On the % scale 0 is the no-effect control and ±100 the full control effect; potency means the concentration at half of the fitted maximal effect; tags describe the fitted curve by direction and shape.

Row | Structure (SMILES) | activity change, negative = inhibition | Potency
1 | N#CC1(Cc2ccc([N+](=O)[O-])cc2)c2ccccc2C=CN1C(=O)c1ccccc1 (centres undefined) | inactive: 0.346% | 
2 | Cc1ccc(-c2nn(-c3cccc(F)c3)cc2CN(Cc2nccn2C)C(C)C)o1 |  | inconclusive: 44.7 µM [inhibitor, partial curve, poor fit]
3 | COc1ccc(C(=O)NCC(C)(c2ccccc2)c2ccccc2)cc1S(=O)(=O)N1CCOCC1 |  | inconclusive: 89.1 µM [inhibitor, single point]
4 | COc1cccc(C(=O)NC(c2ccccc2)C2CCCC2)c1 (centres undefined) |  | inconclusive: 17.8 µM [inhibitor, full curve, poor fit]
5 | CC1(C)Cc2c(sc(NC(=O)c3ccccc3)c2C(=O)O)CO1 |  | inconclusive: 100 µM [inhibitor, partial curve, poor fit]
6 | CC(=O)Nc1cc2c(cc1[N+](=O)[O-])-c1ccccc1C2O (centres undefined) |  | inconclusive: 50.1 µM [inhibitor, partial curve, poor fit]
7 | CN(Cc1ccccc1)CC(O)COc1ccc(CNCc2ccc(Cl)s2)cc1 (centres undefined) | inactive: -6.85% | 
8 | Clc1cccc(-c2ccc3ncnc(NCc4cccnc4)c3c2)c1 |  | inconclusive: 31.6 µM [inhibitor, partial curve, poor fit]
9 | CCOc1cccc2sc(N3CCN(C(=O)C4CC4)CC3)nc12 |  | inconclusive: 89.1 µM [inhibitor, single point]
10 | CCOC(=O)c1c(C)[nH]c(=S)c(C#N)c1-c1ccc(OC)cc1 |  | inconclusive: 50.1 µM [inhibitor, partial curve, poor fit]
11 | CCSc1nc2c(c(-c3ccc(C)o3)c1C#N)CCCC2 |  | inconclusive: 56.2 µM [inhibitor, partial curve, poor fit]
12 | O=C(N/N=C/c1cccnc1)c1ccc2ccccc2c1O |  | inconclusive: 79.4 µM [inhibitor, partial curve, poor fit]
13 | O=C(N/N=C/c1ccc(F)cc1)c1cc(-c2ccco2)nc2ccccc12 |  | inconclusive: 70.8 µM [inhibitor, single point]
14 | COc1ccc(OC)c(/C=C2/Sc3ccccc3C2=O)c1 |  | inconclusive: 79.4 µM [inhibitor, partial curve, poor fit]
15 | COc1ccc(-c2nnc(SCC(=O)NC3CCCC3)nc2-c2ccc(OC)c(OC)c2)cc1OC | inactive: -14.7% | 
16 | Cc1ccc(-c2cn(-c3cccc(Cl)c3)c(S(=O)(=O)CC(=O)Nc3cccc(C)c3)n2)cc1 |  | inconclusive: 79.4 µM [inhibitor, partial curve, poor fit]
17 | CC(C)NC(=O)NC(=O)CN1c2cccc3cccc(c23)S1(=O)=O |  | inconclusive: 70.8 µM [inhibitor, partial curve, poor fit]
18 | CC(C)(C)c1cc(=O)n(-c2ccccc2)[nH]1 |  | inconclusive: 56.2 µM [inhibitor, partial curve, poor fit]
19 | CC(=O)C(Sc1nn(C)c(=S)s1)C(=O)Nc1ccccc1 (centres undefined) |  | inconclusive: 79.4 µM [inhibitor, partial curve, poor fit]
20 | O=C(CSc1nnc(CCc2ccccc2)n1-c1ccc(Cl)cc1)c1ccccc1 |  | inconclusive: 25.1 µM [inhibitor, full curve, poor fit]

Row | Structure (SMILES) | activity change, negative = inhibition | Potency
21 | O=C(CCCSc1ccccc1)Nc1nc(-c2ccco2)c(-c2ccco2)s1 |  | inconclusive: 89.1 µM [inhibitor, partial curve, poor fit]
22 | Cc1oc(/N=C/c2cccc3ccccc23)c(C#N)c1C |  | inconclusive: 50.1 µM [inhibitor, partial curve, poor fit]
23 | Cn1c(CCN2CCCCC2)nc2cc(NC(=O)COc3ccc(Cl)cc3)ccc21 | inactive: -15.6% [at 56.9 µM] | 
24 | COc1ccccc1N1CCN(CCCCNC(=O)c2ccc(-c3ccc(C(C)=O)cc3)cc2)CC1 |  | inconclusive: 0.006 µM [inhibitor, full curve, poor fit]
25 | O=C(CSc1ncccc1-c1nc2ccccc2[nH]1)N1CCCCC1 |  | inconclusive: 20 µM [inhibitor, full curve, poor fit]
26 | COc1ccc(Cl)cc1-c1n[nH]c(=S)o1 |  | inconclusive: 89.1 µM [inhibitor, single point]
27 | COc1cccc(CN2CCCC(C(=O)Nc3ccc(-c4cscn4)cc3)C2)c1 (centres undefined) | inactive: 14.6% | 
28 | CCOc1ccc(N2C(=O)CC(Sc3nc4ccc(OCC)cc4s3)C2=O)cc1 (centres undefined) |  | inconclusive: 89.1 µM [inhibitor, single point]
29 | CC1(C)Oc2ccc3ccc(=O)oc3c2-c2cnoc21 |  | inconclusive: 100 µM [inhibitor, partial curve, poor fit]
30 | Cc1cc(C)n(-c2nc3sc4c(c3c3nnc(SC(C)C)n23)CC(C)(C)OC4)n1 |  | inconclusive: 79.4 µM [inhibitor, partial curve, poor fit]
31 | CC(=O)N1CCN(c2ccc(NCc3ccc4c(c3)OCO4)cc2)CC1 |  | inconclusive: 50.1 µM [inhibitor, partial curve, poor fit]
32 | O=C(NN1C(=O)/C(=C/C=C/c2ccco2)SC1=S)c1ccccc1O |  | inconclusive: 25.1 µM [inhibitor, full curve, poor fit]
33 | Cc1ncc(CN2CCCC(C(=O)Nc3ccc(-c4ccco4)cc3)C2)cn1 (centres undefined) |  | inconclusive: 50.1 µM [inhibitor, partial curve, poor fit]
34 | COc1ccc(N2C(=O)/C(=C/c3ccc([N+](=O)[O-])cc3)C=C2c2ccccc2)cc1 |  | inconclusive: 50.1 µM [inhibitor, partial curve, poor fit]
35 | Cc1cc(C)c(S(=O)(=O)/N=C2/C=C(SCC(=O)O)C(=O)c3ccccc32)cc1C |  | inconclusive: 31.6 µM [inhibitor, partial curve, poor fit]
36 | O=C(COC(=O)c1cc(-c2ccc(Cl)s2)nc2ccccc12)NCc1ccco1 |  | inconclusive: 17.8 µM [inhibitor, full curve, poor fit]
37 | Fc1ccc(NC(=S)Nc2cccnc2)c(F)c1F |  | inconclusive: 50.1 µM [inhibitor, partial curve, poor fit]
38 | CC(=O)c1c(C)[nH]c(C(=O)NCCc2ccccc2)c1C |  | inconclusive: 79.4 µM [inhibitor, single point]
39 | c1ccc(SCCCCNC2CCCC2)cc1 |  | inconclusive: 89.1 µM [inhibitor, single point]
40 | COc1cc(/C=C/c2c([N+](=O)[O-])c(=O)n(C)c(=O)n2C)cc(OC)c1OC | inactive: -14% | 

Row | Structure (SMILES) | activity change, negative = inhibition | Potency
41 | Cc1cc(NC(=O)CON=C(N)CC(=O)Nc2ccccc2Cl)ccc1Br | inactive: -36.3% | 
42 | CN1CCN(CC(O)COCCOc2ccc(Br)cc2)CC1 (centres undefined) |  | inconclusive: 17.8 µM [inhibitor, full curve, poor fit]
43 | O=C(O)c1cc(-c2ccccc2Cl)n(-c2ccc(F)cc2)n1 |  | inconclusive: 79.4 µM [inhibitor, partial curve, poor fit]
44 | CCOc1ccc(N2C(=O)CC(NCc3ccc(S(N)(=O)=O)cc3)C2=O)cc1 (centres undefined) | inactive: -28.4% [at 11.4 µM] | 
45 | CSc1ncccc1C(=O)Nc1ccc(OC(F)(F)F)cc1 |  | inconclusive: 31.6 µM [inhibitor, full curve, poor fit]
46 | C=CCn1c(SCC(=O)N2CCOCC2)nc2scc(-c3ccco3)c2c1=O |  | inconclusive: 100 µM [inhibitor, single point]
47 | Cc1occc1-c1nnc(SCC(=O)NCC2CCCO2)n1C (centres undefined) |  | inconclusive: 50.1 µM [inhibitor, partial curve, poor fit]
48 | COc1ccc(S(=O)(=O)N2CCOCC2)cc1C(=O)NCc1c(C)nn(Cc2ccccc2)c1C | inactive: -19.6% | 
49 | CC1=NN(c2ccc(Cl)cc2)C(=O)C1C(c1cccc(O)c1)c1c(C)[nH]n(-c2ccc(Cl)cc2)c1=O (centres undefined) |  | inconclusive: 70.8 µM [inhibitor, partial curve, poor fit]
50 | CCc1cccc(CC)c1NC(=O)COC(=O)/C(C#N)=C/c1ccc(OC)cc1 |  | inconclusive: 100 µM [inhibitor, single point]
51 | Cc1ccc(C(=O)c2c(C)oc3c2C(=O)C(=O)c2ccccc2-3)cc1 |  | inconclusive: 100 µM [inhibitor, partial curve, poor fit]
52 | COc1ccc(Cn2nnnc2CN2CCN(c3ccc(OC)cc3)CC2)cc1 |  | inconclusive: 50.1 µM [inhibitor, partial curve, poor fit]
53 | Nc1cc(S(=O)(=O)Nc2ccc(Cl)cc2)ccc1N1CCOCC1 |  | inconclusive: 50.1 µM [inhibitor, partial curve, poor fit]
54 | CCOC(=O)C1=C(C)N=c2s/c(=C/c3ccc(OCC(=O)O)cc3)c(=O)n2C1c1ccc(F)cc1 (centres undefined) |  | inconclusive: 50.1 µM [inhibitor, partial curve, poor fit]
55 | COc1ccc(C(=O)Nc2ccccc2C(=O)NC(C)C)cc1OC |  | inconclusive: 70.8 µM [inhibitor, partial curve, poor fit]
56 | Cc1ccc(Cn2c(=N)c(C(=O)NCCN3CCOCC3)cc3c(=O)n4ccccc4nc32)cc1 |  | inconclusive: 79.4 µM [inhibitor, single point]
57 | CC(NC(=O)CN(Cc1ccccc1)S(=O)(=O)c1ccccc1)c1cccnc1 (centres undefined) |  | inconclusive: 89.1 µM [inhibitor, single point]
58 | C[C@@H](NCCc1ccc(O)cc1)[C@@H](O)c1ccc(O)cc1 |  | inconclusive: 0.0946 µM [inhibitor, full curve, poor fit]
59 | CCc1ccc(-n2c(SCc3cc(=O)n4cc(Br)ccc4n3)nc3[nH]ncc3c2=O)cc1 |  | inconclusive: 89.1 µM [inhibitor, single point]
